According to article PMC12136788:
This is one part of the list.

T1: UNK ZnF1-3 (human, UniProt Q9C0B0 31-174)
T1 sequence: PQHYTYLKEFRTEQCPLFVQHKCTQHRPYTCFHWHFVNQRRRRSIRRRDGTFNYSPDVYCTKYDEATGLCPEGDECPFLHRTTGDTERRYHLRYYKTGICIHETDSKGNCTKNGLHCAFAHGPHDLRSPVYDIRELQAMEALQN

B1: chr4:131761308:131761309:-_ENSMUSG00000040025_ENSMUST00000102570|mus_hu|FALSE|FALSE (ssRNA)
RNA: GGGAGUUCUACAGUCCGACGAUCAGCUGACUGUCCAUCAAUCAUGGCUCCACCUAAGGAGCUAGGUGCAUAAGCAUAAUUGCUACUAUAUCCAGAGCUCUGAGUAGACUGUCCCUGAGAACUGUUAUUUCCCCAUGCUGAGAACAACAGAGGAUUGAGCAUCA
B2: 40938855_40940850_1698_CDS_ENSMUSG00000028423_ENSMUST00000098143|mouse|control|control (ssRNA)
RNA: GGGAGUUCUACAGUCCGACGAUCAGACUUUCCCACAUCGGUUCCACACAACACAUCUCGGGAGGUGCUGCCACAGUAGCACACCUGGUUCAGUAUGAUCCGACAAGGCUGGCAUUGACCCCCAUGGCACAGCUCAGCACAGUGCAACAGAGGAUUGAGCAUCA
B3: chr7:141441981:141441982:+_ENSG00000106028_ENST00000265304|hu_mus|hu_hu_hu_mus_False|18_18 (ssRNA)
RNA: GGGAGUUCUACAGUCCGACGAUCCUCAUGUCUUACAAACUGACGAAAUACCUGUAACACAGGUCUUCGAAACAUGGCUUCUGUUUUUCUUACAACCUAAUCUUUAGGCUUUUCCUACCUGACGAUCAGAAAAGAGAAAAAUGACAACAGAGGAUUGAGCAUCA
B4: chr2:130369808:130369809:+_ENSMUSG00000027303_ENSMUST00000028769|mus_hu|FALSE|FALSE (ssRNA)
RNA: GGGAGUUCUACAGUCCGACGAUCGUUGGCUGGAAGGUUUCCAGUCCGCAUCUUGUCAUUCUGGAUUUUGAUUGAUGUUAACUUCUUAAACUCCUCCUCUAAUCCAUUGUUGCUGGUCCCUGGGAUUUUGUUGUAAAUUUUCUGCAACAGAGGAUUGAGCAUCA
B5: chr22:38882006:38882007:-_ENSG00000100201_ENST00000396821|hu_mus|motif|central (ssRNA)
RNA: GGGAGUUCUACAGUCCGACGAUCUGGAGGAGGGGGAGGGGGAGGGGGAGGGUACUGGUAAGCAGUCUGCCCCAUGUAGCCGGUCAUAUUGGUAGCUCCUGGAGGCUGUGCAAACUGCUGUGACAUCAGUGGCUGUGGCUGCUGCAACAGAGGAUUGAGCAUCA
B6: 25105453_25107290_353_CDS_ENSMUSG00000006471_ENSMUST00000100329|mouse|control|control (ssRNA)
RNA: GGGAGUUCUACAGUCCGACGAUCUAUGUUGAGCUCCUCAGCCCCUAUGCUGGGGACCUCCUGAAGAAACUGAAAGAUGAACUUGGAGGGCAAGUUGGCAUAUGAGGAAUCCCCGAGGCCUAGGACAGCAAAAUCCAUUUGACACAACAGAGGAUUGAGCAUCA
B7: chr2:179515052:179515053:+_ENSMUSG00000000305_ENSMUST00000000314|mus_hu|mus_mus_mus_hu_False|1_68 (ssRNA)
RNA: GGGAGUUCUACAGUCCGACGAUCGCUGUCCCAUGCAGUCACCGUGAACGCCACCUGCUCGGAGGGGAUCUUCAACUCCCGGGUGGCGAAGACUGUCCCAUCUGCCCCAACUUUGAAGUCCAUGCUGUUGGUCUCAUACUGCAUCAACAGAGGAUUGAGCAUCA
B8: chr9:49312907:49312908:-_ENSMUSG00000039542_ENSMUST00000166811|mus_mus|FALSE|FALSE (ssRNA)
RNA: GGGAGUUCUACAGUCCGACGAUCAGCUGGCAUUUGGCAUGCUUCCUAAGAAACAGGAGUCCCCGUGGGAACUGAACUCAGCUAGCCAGAGUGCCACACUCCGCAUAUGGAACAAACACAAACUGAACGGAAAGUAUAACUUAUCAACAGAGGAUUGAGCAUCA
B9: 165208209_165208784_503_CDS_ENSMUSG00000017667_ENSMUST00000103084|mouse|control|control (ssRNA)
RNA: GGGAGUUCUACAGUCCGACGAUCCAAGUUUUCCACUACCCAGGGCUCUUUUCCUUGCUCCAGUUUUAAGAUCACAUCUGGUUUGCUCACAUGAAGCCCCACCGCGAUGAGGUUACUGUAGGUCUCCAGCAUCACAUCCCUGUACAACAGAGGAUUGAGCAUCA
B10: chr4:95690885:95690886:+_ENSMUSG00000028572_ENSMUST00000156910|mus_mus|mus_mus_mus_hu_False|98_108 (ssRNA)
RNA: GGGAGUUCUACAGUCCGACGAUCUUUAUUUUUAGAAAAUGUUAAAUCUAAAAUAUUUUCAAAGGCUUAUUUUAUUUUACCAGAAGUCACAGGCAAGCAGACACUACAAGAAUAUAUGAAAAUGAAACUCAACAAUAUAACUGUCAACAGAGGAUUGAGCAUCA
B11: chr11:97543600:97543601:+_ENSMUSG00000038437_ENSMUST00000044730|mus_mus|motif|central (ssRNA)
RNA: GGGAGUUCUACAGUCCGACGAUCUUGGCUGCCCCAGGUCCAGAGGAAGAAAUGACAGAUAGACAGACAGGUUAAACAGACGGACCAUCUCUCUCUUUUUCUCUCACUCACACACACACUCACACACUCACAAUCUGUGGAGUCCAACAGAGGAUUGAGCAUCA
B12: chr4:40680069:40680070:+_ENSMUSG00000028410_ENSMUST00000030118|mus_hu|FALSE|FALSE (ssRNA)
RNA: GGGAGUUCUACAGUCCGACGAUCAAAAUCAGAGCUUUUAUAUUUGCGUUUAUUCUUCAUUUAACUUUUUAAAACACUACUAUAGUUUAUUAAAACAAAAACAAGAGCAAGUAGUGAGCAUAUUAUGAUUACAGUCCUUCACUCCAACAGAGGAUUGAGCAUCA
B13: chr2:64863866:64863867:-_ENSG00000179833_ENST00000313349|hu_mus|FALSE|FALSE (ssRNA)
RNA: GGGAGUUCUACAGUCCGACGAUCAAUUAAGACAGUCUUCUGCAAGCUGGGCUCUGUCAGAGGCCUGUGGUUAUACAGUUUCAUAAGGGAAAUGUUGAAGAUAGUCUGGCGCUGUAAGGUGUAAGACACCCUGGAUGGACCGUCCAACAGAGGAUUGAGCAUCA
B14: 95382642_95384677_1716_CDS_ENSMUSG00000032407_ENSMUST00000079659|mouse|control|control (ssRNA)
RNA: GGGAGUUCUACAGUCCGACGAUCUCGCAAGAUUUCUUCUAACUUAUCCCGCUGUUCUUCCUUGAGUGCUCCCUUCUUACUAGGUUCUUCUACAAACGCUUCUGUCUCUUGCUCCUCUGACAUCCCAUGAAGGUAUGGAUUUAACAACAGAGGAUUGAGCAUCA
B15: chr7:135612270:135612271:-_ENSG00000105887_ENST00000393085|hu_mus|hu_hu_hu_mus_False|88_98 (ssRNA)
RNA: GGGAGUUCUACAGUCCGACGAUCGUUUUUUUCUGAGUAAGUAUUACUUCAGUGGAGGGAAAACAAAACUUAACCUUUUAUUAAUGCGUGUUGUACCAAAAGCAGACAUUUUAGCUUCAUUUAUUCAAAAAUAUUAACAUUAAGCAACAGAGGAUUGAGCAUCA
B16: 23457221_23464205_356_3pUTR_ENSG00000168434_ENST00000307149|human|control|control (ssRNA)
RNA: GGGAGUUCUACAGUCCGACGAUCUUUAGGGCUUCAACAUCACGGAGCACUUUGGGCAUGUUCUGGAGAGCUUGGUGACUUGUUUCCUCCACGGCGUGGUUCACCUCUUGGAUGAACAGCUGCAGCUUCAUCACCAGGGUGGCUCAACAGAGGAUUGAGCAUCA
B17: chrM:5821:5822:+_ENSMUSG00000064351_ENSMUST00000082402|mus_mus|FALSE|FALSE (ssRNA)
RNA: GGGAGUUCUACAGUCCGACGAUCCUGUGUUAUGGCUGGGGGUUUCAUGUUGAUAAUAGUGGUAAUAAAAUUAAUUGCACCUAAAAUAGAUGACACUCCAGCUAAAUGAAGGGAGAAAAUUGUUAGGUCUACUGAUGCUCCUGCCAACAGAGGAUUGAGCAUCA
B18: chr12:39756943:39756944:-_ENSG00000139116_ENST00000544797|hu_mus|hu_hu_hu_mus_False|8_78 (ssRNA)
RNA: GGGAGUUCUACAGUCCGACGAUCGGUUUGGCUGUUACCCCCAAGGGAAUCCUGCAAUAGUCUUGUUAGCUUAGAGUCUCUGUAAGGGACAUGGGUGGCUCUCUUGCUCUUGUCCCCCAAGGCGCUGAUUACAUUGCCAAGAGCCAACAGAGGAUUGAGCAUCA
B19: chr4:115894766:115894767:+_ENSMUSG00000028698_ENSMUST00000030464|mus_hu|mus_mus_mus_hu_True|58_68 (ssRNA)
RNA: GGGAGUUCUACAGUCCGACGAUCUUCCACACGGAAAUGUACUUCGGGUUUUCCAACGGCCAGUACCGUCCAGCCAAACUACUAGGAACAGGGUCCUCCCCCUCUCUCCUACAGAACACAACAAAAUGCCCCCGAACUUUCAAGCAACAGAGGAUUGAGCAUCA
B20: 21504503_21511602_2340_CDS_ENSMUSG00000033653_ENSMUST00000117598|mouse|control|control (ssRNA)
RNA: GGGAGUUCUACAGUCCGACGAUCAACUUGCUCAUCUGUAAGAGUCUUCCCUGCAUUCAGAGGUGGGGCGAUGACUUUGAAAAGCUUCUCCAUCGGACUGAUAAACUCAUUCAUGCCUCGGUUGUAGACAUAGACCAUGGCGUCCAACAGAGGAUUGAGCAUCA
B21: chr2:168013125:168013126:-_ENSMUSG00000051149_ENSMUST00000088001|mus_hu|motif|central (ssRNA)
RNA: GGGAGUUCUACAGUCCGACGAUCCUCCCAUGUAGUGUUUUUCAAAUAAAAGUCAUUAGGUUCAAAUUGUUUAAAAUCUUCGGUAUGUUCUUUACAGUAUUCCAACCCAAUGUCACUAAGUAUUUUUUUCACAGUUUUCCGGGCCAACAGAGGAUUGAGCAUCA
B22: chr2:162087991:162087992:+_ENSG00000136560_ENST00000392749|hu_hu|motif|central (ssRNA)
RNA: GGGAGUUCUACAGUCCGACGAUCUUUUCCCGGGGAAUCGAGUGAGGGAAAAGGUGCAUCAGAUGGGUCCAGAAGUGGGAAGCGGUUUACAUAUAAUGCAUUAUGGUCUCCAGGUGGCAAACACGCAGCUCUAUCCAGAGUUGUCAACAGAGGAUUGAGCAUCA

Target: T1, UNK ZnF1-3
Assay: nsRBNS (natural sequence RNA bind-n-seq); RBNS binding buffer (assumed for nsRBNS): 25 mM Tris pH 7.5, 150 mM KCl, 3 mM MgCl2, 0.01% Triton X-100, 500 ug/ml BSA, 20 U/ml SUPERase-In, 4 C; UNK is unkempt and MSI1 is Musashi-1; names of the RNAs are library labels; protein concentration not given here; high values mean tight binding

B1 was tested. Which binding signal did it give?
The binding signal was 1.13 enrichment R.

B2 was tested. Which binding signal did it give?
Its binding signal is 1.05 enrichment R.

With B3 as the binder, how does the binding signal read?
Its binding signal is 0.592 enrichment R.

For B4, which binding signal is on record?
The binding signal was 0.345 enrichment R.

For B5, which binding signal is on record?
Its binding signal is 1.33 enrichment R.

How did the binding signal turn out when B6 was run?
Its binding signal is 1.18 enrichment R.

Which binding signal does the source give for B7 here?
Its binding signal is 0.733 enrichment R.

For B8, which binding signal is on record?
Its binding signal is 0.886 enrichment R.

B9 was tested. Which binding signal did it give?
Its binding signal is 0.771 enrichment R.

For B10, which binding signal is on record?
The binding signal was 1.79 enrichment R.

How did the binding signal turn out when B11 was run?
The binding signal was 1.7 enrichment R.

Which binding signal does the source give for B12 here?
Its binding signal is 0.879 enrichment R.

With B13 as the binder, how does the binding signal read?
The binding signal was 0.693 enrichment R.

B14 was tested. Which binding signal did it give?
Its binding signal is 0.559 enrichment R.

How did the binding signal turn out when B15 was run?
The binding signal was 1.18 enrichment R.

How did the binding signal turn out when B16 was run?
The binding signal was 0.804 enrichment R.

How did the binding signal turn out when B17 was run?
The binding signal was 1.19 enrichment R.

B18 was tested. Which binding signal did it give?
Its binding signal is 0.614 enrichment R.

How did the binding signal turn out when B19 was run?
Its binding signal is 1.14 enrichment R.

How did the binding signal turn out when B20 was run?
Its binding signal is 1.06 enrichment R.

With B21 as the binder, how does the binding signal read?
The binding signal was 1.24 enrichment R.

Which binding signal does the source give for B22 here?
The binding signal was 1.36 enrichment R.
